Experimental data reported in ChEMBL document CHEMBL4888484, “Replenishing the malaria drug discovery pipeline: Screening and hit evaluation of the MMV Hit Generation Library 1 (HGL1) against asexual blood stage Plasmodium falciparum ,using a nano luciferase reporter read-out” (2022).
Hit rate of the full screen: of about 150,000 compounds, about 540 (0.36%) showed an effect of 50% or more. Some of the results follow.

Tested on: Plasmodium falciparum
Assay: Primary screen in NF54 nanoGlo assay, in single point, at 2uM, 72h; a lower Z score goes with more inhibition
Format: functional, Erythrocyte
Details: timepoint 72 hour

SMILES | % Inhibition [%] | Z score
CCCc1cc(-c2ccc3c(c2)OCCO3)nc(C)n1 | -1 | 0.22
C[C@H]1CNc2c(NC(=O)NCCNc3ccc(C#N)cn3)cnn2C1 | -6 | 1.01
C[C@H]1CCC(C)(C)N1C(=O)c1ccc2nnnn2c1 | -3 | 0.59
CCCn1ncc(CN2CCN(c3ccnc4ccccc34)CC2)c1C | -3 | 0.54
CCOC1(C)CCN(C(=O)NC[C@H]2Cc3ccccc3CN2)CC1 | -1 | 0.27
COc1cc(Br)cc(S(=O)(=O)Nc2nnc(-c3ccc(C)c(F)c3)o2)c1 | -42 | 4.89
c1coc(-c2ncc(-c3cn(CCN4CCc5ccccc54)nn3)cn2)c1 | 18 | -2.33
O=C1CCCCN1CC(=O)N1CCO[C@@H](CCCc2ccccc2)C1 | -17 | 2.82
C[C@@H](CNC(=O)N1CCOC2(CCC2)C1)Oc1ccc(Cl)cc1 | -1 | 0.25
CCOC(=O)c1cc(S(=O)(=O)N2CCC[C@H]2C(=O)Nc2ccc3c(c2)OCCO3)cn1C | -2 | 0.36
CC1CCN([C@@H](C)C(=O)N2CCc3onc(-c4ccccc4)c3C2)CC1 | -7 | 0.84
C[C@H]1CN(C(=O)c2ccc3ncsc3c2)C[C@]1(O)C1CCC1 | -12 | 2.1
Cc1csc([C@H](C)NC(=O)c2cnn[nH]2)n1 | -4 | 0.8
COc1ccccc1N1CCN(C(=O)C[C@H]2CCOC3(CCN(C(C)=O)CC3)C2)CC1 | -1 | 0.15
Oc1ccnc2c1ccc1c(O)ccnc12 | -9 | 1.07
Fc1ccccc1-c1noc(NCc2ccc(Cl)cc2)n1 | -11 | 1.01
Cc1oc(C(C)C)nc1C(=O)NCc1ccncc1 | -15 | 2
COc1ccc(C)cc1-c1n[nH]c(C(=O)N(C)C)n1 | -7 | 0.62
C=C(C)C[C@H](C)C(=O)Nc1cnsc1 | -3 | 0.39
Cc1cc(C)c(C(=O)N2CCCC[C@@H]2C(=O)O)o1 | -4 | 0.6
Cc1noc2ncc(NCc3c4c(nn3C)CCC4)cc12 | 2 | -0.39

SMILES | % Inhibition [%] | Z score
Cc1cc(C)cc(C(=O)N2CCCN(c3cc(=O)n(C)c(=O)n3C)CC2)c1 | -6 | 0.87
C[C@H]1CCN(Cc2cn(C)c(=O)n(C)c2=O)c2ccccc21 | -7 | 1.29
c1nc(N2CCC(COc3cc4c(nn3)CCC4)CC2)c2cc[nH]c2n1 | -5 | 0.57
CCC(=O)N[C@@H]1c2ccccc2C2(CCN(C(=O)c3sccc3C)CC2)[C@H]1OCc1cccnc1 | 1 | -0.11
Fc1ccccc1Nc1nc(Oc2ccc(Cl)cc2)nc(N2CCc3ccccc3C2)n1 | 5 | -0.68
C=Cc1ccc(C(=O)Nc2ccc(-c3cnn(C)c3)nn2)cc1 | 6 | -0.82
CCCc1cnc(NC(=O)c2cnn(CC)c2)s1 | -9 | 1.47
O=C(CCc1ccc(Cl)c(C(F)(F)F)c1)NCc1cccnc1-c1ccsc1 | 0 | -0.06
O=C(Cc1noc2ccccc12)N1CCC[C@@]2(CCOC2)C1 | 2 | -0.33
CN1CCN(C(=O)c2ncc(F)cc2F)C[C@H]1c1ccccc1 | 3 | -0.49
CCc1cnc(CCNC(=O)N2CCO[C@H](c3cccc(Cl)c3)[C@H]2C)s1 | 0 | -0.04
O=S(=O)([C@H]1CCOC1)N1Cc2cnn(-c3ccccc3)c2C1 | 5 | -0.95
O=C(COC(=O)CN1C(=O)c2ccccc2C1=O)Nc1ccc(N2CCCCC2)cc1 | -2 | 0.27
COCCOCc1nc([C@@H]2CCCCN2C(=O)C2CCCC2)no1 | -12 | 1.57
CCN(CC)CCc1ccc(NC2CCN(C(=O)C(C)(C)C)CC2)cc1 | -11 | 1.43
Cc1cc(N[C@@H](C)[C@H](O)c2ccc(O)cc2)n2nc(C)cc2n1 | -24 | 2.21
O=C(CN1CCn2nc(-c3ccc(Cl)cc3)cc2C1=O)NCCN1CCCCC1 | -8 | 1.12
CC(C)N1CCCn2cc(S(=O)(=O)Nc3cccc(C(F)(F)F)c3)cc2C1=O | -15 | 1.77
O=C(O)[C@H]1CCCN1C(=O)CCc1ccccc1Cl | -4 | 0.36
COc1cccc(CC(=O)N2CC(N(Cc3ccccn3)C(=O)Nc3ccccc3)C2)c1 | 1 | -0.28
Cc1cc(NC(=O)N[C@H]2CC(=O)N(C3CCCC3)C2)ccc1Br | 0 | -0.07
